Drawing on PubChem BioAssay (NCI), this text covers GI50 and TGI for six compounds.

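Protocol summary: plate cells (96-well), add compound at 5 concentrations, incubate 48 h, interpolate endpoints linearly. The concentration for 50% growth inhibition is given as GI50. TGI: concentration producing complete growth inhibition.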

In general, GI50 refers to the concentration that inhibits growth by half. What is called TGI is the concentration at which net growth stops.

This assay has as its system NCI-H322M lung. Description: DTP human tumour cell line panel, 48 h.
As to `Cn1ccnc1C(=O)/C=C/c1ccc(CNC(=O)c2ccc(Cl)cc2)cc1`, the GI50 was 1990 nM and the TGI was 4000 nM.

Turning to `C=C(C)C(=O)O[C@H]1C[C@@]2(C)OC(=CC2=O)/C(CO)=C\[C@H]2OC(=O)C(=C)[C@H]12`, the GI50 was 1510 nM and the TGI is more than 3330 nM.

For `NC(=S)n1c(=O)n(-c2cccc(C(F)(F)F)c2)c(=O)c2cc(-c3ccc(F)cc3F)ccc21`, the GI50 is 2120 nM and the TGI turned out to be 8890 nM.

Take `CCN1C(=O)N(CC)C2SC(N/N=C/c3ccccc3)=NC21` (configuration not stated): the GI50 is 1060 nM and the TGI is more than 100000 nM.

Regarding `CC1=C(CN(O)C(N)=O)C2=C(C)C3(CC3)[C@](C)(O)C(=O)C2=C1`, the GI50 was 1980 nM and the TGI was 7930 nM.

For the compound `O=C1c2c(c3c4cc(O)ccc4oc3c3[nH]c4ccccc4c23)C(=O)N1O`, the GI50 was 1140 nM and the TGI is 6100 nM.
